The whole screen tested about 48,000 compounds, of which about 120 (0.25%) were called active. Inconclusive results (about 4%) are left out. The call rests on the fitted dose curve; in most records, active means well fitted activation curve with a large enough effect; inconclusive means small, poorly fitted or top-dose-only effect, or another doubt; inactive means no such curve, though single readings can be large or run the other way. Some of the results follow.
Assay: Primary qHTS for Identification of Small Molecule Activators of Huntingtin-Antisense Promoter Activity; further: nearly all actives have a fitted effect of over 55% in size
Details: HEK293 HTT-AS promoter firefly luciferase reporter, 24 h; series mostly up to 57.5 µM; activity change, positive = activation: at the top concentration
In short: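 Luminescence was read after Dual-Glo reagent and a 10 min room-temperature incubation. Values were normalized to vehicle (0% activity) and zero RLU (-100% activity). Reporter HEK293 cells had been exposed to compounds (up to 57.5 uM final) for 24 h.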

Activity change, positive = activation, inactive:
CCN(CC)C(=O)Cn1cc(SCC(=O)Nc2cccc(F)c2)c2ccccc21 -15.4%
COc1ccc(C(CC(=O)O)NC(=O)c2cc3ccccc3oc2=O)cc1OC (configuration not stated) -4.92%
Oc1ccc(Nc2nc3ccccc3n3cnnc23)cc1 20%
Cc1cccc(Cn2c(=O)n(Cc3ccc(C(=O)NC4CCN(Cc5ccccc5)CC4)cc3)c(=O)c3ccccc32)c1 -14.2%
CCOCCCNC(=O)CN1C(=O)COc2ccc(S(=O)(=O)N3CCCCCC3)cc21 -4.04%
CCOC(=O)c1cnc2c(C)cc(C)cc2c1Nc1cccc(C(=O)O)c1 -6.44%
Cc1ccc(C2c3c(-c4cc(C)ccc4O)n[nH]c3C(=O)N2Cc2ccco2)cc1 (configuration not stated) -6.83%
O=C(Nc1cccc2cccnc12)c1ccccc1[N+](=O)[O-] 23.2%
CCCCn1c(SCC(=O)Nc2cccc(OC)c2)nc2c(sc3ccccc32)c1=O 5.87%
COc1ccccc1N1CCN(C(=O)C2CCN(S(=O)(=O)c3c(C)noc3/C=C/c3ccc(C)cc3)CC2)CC1 -26.3%
COc1cccc(Cn2c(=O)n(CC3CCC(C(=O)N4CCCCC4)CC3)c(=O)c3sccc32)c1 (configuration not stated) -43.4%
Cc1cccc(Cc2cnc(NC(=O)C3Cc4ccc(C)cc4C(=O)O3)s2)c1 (configuration not stated) -1.36%
CCOC(=O)N1CCN(Cc2nc3cc(NC(C)=O)ccc3n2C(C)C)CC1 -30%
Cc1cc(C)cc(-n2c(SCC(=O)NCc3ccco3)nc3c([nH]c4ccccc43)c2=O)c1 -32.5%
CC(C)NC(=O)CCn1c(SCc2c(F)cccc2Cl)nc2c(sc3ccccc32)c1=O -6.02%
COc1ccc(NC(=O)NCCc2c(C)nn(C)c2C)c(OC)c1 0.849%
Cc1nnc2c(N3CCN(c4ccccc4F)CC3)nc3ccccc3n12 -11.2%
CCOC(=O)c1cc(-c2ccc(C)cc2)n(CCC(=O)Nc2nc3c(C)cccc3s2)c1C -28.7%
Cc1cc(-n2c(SCC(=O)NCc3ccccc3)nc3ccsc3c2=O)ccc1Cl -35.5%
Nc1[nH]nc2nnc(-c3c(-c4ccccc4)nn4ccccc34)cc12 -18.4%
CCCCCC(=O)N1c2ccccc2C(C)(c2ccccc2)CC1(C)C (configuration not stated) -18.7%
O=C(c1ccccc1Br)N(Cc1ccco1)C1CCS(=O)(=O)C1 (configuration not stated) 14%
O=C(c1ccc2c(c1)N(Cc1ccccc1)C(=O)c1ccccc1S2(=O)=O)N1CCCC1 -33.3%
CCC(Sc1nc2c(sc3ccccc32)c(=O)n1CCc1ccccc1)C(=O)N(CC)CC (configuration not stated) 7.59%
COc1cccc(CCNC(=O)Cn2c(-c3cccs3)cc3ccccc32)c1 -33%
COc1ccc(Cn2c(C(=O)O)c(CNCC(C)c3ccccc3)c3ccc(OC)cc32)cc1 (configuration not stated) -35.7%
COc1ccc(NC(=O)CN2C(=O)C(c3ccc(C(C)(C)C)cc3)=NC2(C)C)cc1Cl 8.13%
Cc1ccc(C)c(N2CCN(C(=O)Nc3cn(CC(C)C)c(=O)c4ccccc34)CC2)c1 -20.8%
CCCN1C(=O)C(O)(CC(=O)c2ccc(OC)c(OC)c2)c2ccccc21 (configuration not stated) -28.3%
CN1CCN(C(=O)c2ccc3c(c2)N(Cc2cccc(Cl)c2)C(=O)c2ccccc2S3(=O)=O)CC1 -8.27%
COc1ccccc1CNC(=O)C1CCN(S(=O)(=O)c2c(C)noc2/C=C/c2c(C)cc(C)cc2C)CC1 1.61%
O=C(Nc1ccc2nc(SCCOc3ccccc3)sc2c1)c1cccs1 -18.3%
O=C(Nc1ccc(C(F)(F)F)cc1)c1cc(S(=O)(=O)NC2CCCCC2)ccc1F -39.1%
COc1cc(O)c2c(c1)C(=O)c1cc(C)cc(O)c1C2=O -3.29% [at 25.1 µM, percent change from vehicle, -100% = no light]
COc1cccc(CNC(=O)CSc2ncc3c(n2)-c2cc(Cl)ccc2N(C)S3(=O)=O)c1 4.88%
CCc1ccc(NC(=O)c2ccc(F)c(S(=O)(=O)NC3CCCCCC3)c2)cc1 -36.8%
Cc1coc2c(C)c3oc(=O)c(CC(=O)NCc4ccccc4)c(C)c3cc12 -14.8%
Cc1c(Cl)cccc1NC(=O)CN1C(=O)COc2ccc(S(=O)(=O)N3CCCCCC3)cc21 -5.49%
Cc1ccc(-n2nnc(-c3nsc(NC(=O)c4ccccc4)n3)c2C)cc1 22.7%
CCc1cccc(C)c1NS(=O)(=O)c1cc(-c2cc(C)no2)ccc1C -19.9%
CCOc1ccc(OCC(=O)NCCS(=O)(=O)N2CCN(c3ccc(F)cc3)CC2)cc1 2.07%
Cc1ccc(-n2nc3ccc(NC(=O)c4oc5ccc(C)cc5c4C)cc3n2)cc1 5.75%
CCOC(=O)n1ccn(C)c1=S -10.4%
O=C(CCC1CCCC1)N1CCc2c([nH]c3ccccc23)C1c1ccc(Cl)cc1 (configuration not stated) -36.2%
O=C(Nc1ccccc1F)c1nc(SCc2ccc(F)cc2)ncc1Cl -11.3%
CCCOc1ccccc1C(=O)N1CCCCC1CCN1CCOCC1 (configuration not stated) -3.26%
CCN(C(=O)Cn1ncc2c(=O)oc3ccc(C)cc3c21)c1cc(OC)ccc1OC -15%
CCOC(=O)C1CCCN(S(=O)(=O)c2ccc(N3CCCCS3(=O)=O)cc2)C1 (configuration not stated) -7.08%
CC1CCc2noc(NC(=O)c3ccccc3[N+](=O)[O-])c2C1 (configuration not stated) -12.1%
Cc1cc(C(F)F)n2nc(C(=O)Nc3cc(Cl)ccc3C)nc2n1 -7.23%
COc1ccc(C(=O)Oc2c(Sc3ccc(Cl)cc3)c(C)nn2C(C)(C)C)cc1OC -41.4%
COc1ccc(NC(=O)CCCn2c(=O)c3cccn3c3ccccc32)c(OC)c1 7.81%
O=C(NCCc1csc(-c2ccc(C(F)(F)F)cc2)n1)C(=O)Nc1cc(F)ccc1F -4.63%
O=C(Cn1c(=O)c2ccccc2n(CC(=O)Nc2ccc(Cl)cc2)c1=O)NCCc1ccccc1 -34.3%
CCCCN(C)CCNC(=O)C1CCCN(S(=O)(=O)c2ccc3c(c2)oc(=O)n3C)C1 (configuration not stated) -0.737%
Cc1c(CCNC(=O)Cc2ccc(F)cc2)sc2nc(-c3ccc(F)cc3)nn12 5.51%
CCOC(=O)c1c(C)[nH]c(CCC(=O)NCCCN2CCN(c3cc(Cl)ccc3C)CC2)c1C -40%
CCc1ccccc1NC(=O)Cn1c(=O)n(CCCS(=O)(=O)C2CCCCC2)c(=O)c2ccccc21 -20.9%
CCOc1ccc(C(=O)Nc2cccc(OCc3cc(=O)n4ccccc4n3)c2)cc1 7.47%
CCOC(=O)c1[nH]c(C)c(CCC(=O)Nc2ccc(C(C)=O)cc2)c1C -3.49%
Cc1ccccc1NS(=O)(=O)c1nnc(NC(=O)c2ccc(Cl)cc2)s1 -10.5%
Cc1cccc(CNS(=O)(=O)c2csc(C(N)=O)c2)c1 -15.7%
CCOc1cccc(CNCCNC(=O)c2nonc2N)c1 -22.2%
O=C1C(c2cccc(Br)c2)N(CCc2ccccc2)C(=O)CN1C1CCCCC1 (configuration not stated) -16.5%
Cc1ccc(Cl)cc1-n1c(=O)c2sc3ccccc3c2n(CC(=O)NC2CCCCC2)c1=O -24.6%
COc1ccc(CNC(=O)Cn2c(=O)oc3cc(S(=O)(=O)N4CCC(C)CC4)ccc32)cc1 -2.36%
COc1cccc(CNC(=O)CN2C(=O)CSc3c2c(C)nn3-c2ccccc2)c1OC -21.7%
Cc1cccc(C)c1NC(=O)c1nc(S(C)(=O)=O)ncc1N(Cc1ccc(F)cc1)Cc1ccco1 -32.5%
CCOC(=O)c1cnc2c(C)cc(C)cc2c1NCCc1ccc(OC)c(OC)c1 -4.53%
Cc1cc(-c2ccc(C)c(S(=O)(=O)Nc3ccccc3C(F)(F)F)c2)on1 -35.8%
COc1ccc(C(=O)N(Cc2ccc(N(C)C)cc2)Cc2ccco2)cc1Cl -34.9%
Cc1ccc2c(CC(=O)NCc3ccccc3)coc2c1C -16.6%
O=c1c2sc3ccccc3c2n(Cc2ccccc2Cl)c(=O)n1Cc1ccccc1 -5%
Cc1ccc(C)n1-c1c(C(=O)NCC(C)c2ccccc2)sc2ncccc12 (configuration not stated) -21.3%
COc1cc(NC(=O)N2CCc3c(sc4c3CCCC4)C2c2ccccc2)cc(OC)c1OC (configuration not stated) -49.6%
CCOc1ccc(CNC(=O)CSc2nnc(C)c3c(C)n(-c4ccc(Cl)cc4)nc23)cc1 -18.5%
O=C(CN1C(=O)COc2ccc(S(=O)(=O)NC3CCCC3)cc21)NCc1ccc(Cl)cc1 -18.4%
CCN(CC)CCSc1c(C(C)C)cnc2c1c(=O)n(C)c(=O)n2C -1.55%
COc1ccc(OC)c2sc(N3CCN(C(=O)c4ccco4)CC3)nc12 -16.5%
CCOC(=O)N1CCN([N+]([O-])=NOc2ccc([N+](=O)[O-])cc2[N+](=O)[O-])CC1 -20.1%
COc1ccc(-c2cc(C(F)(F)F)nc(SCCC(=O)Nc3ccc(OC)c(OC)c3)n2)cc1 -27.6%
CCCCc1nnc(SCc2cc(=O)c3cc(F)ccc3[nH]2)n1C -28.9%
CCN(CC)C(=O)c1c(NC(=O)c2cccc(C)c2)sc2c1CCC(C)C2 (configuration not stated) -1.75%
CCN1CCC(N(Cc2ccc3c(c2)OCO3)C(=O)Nc2cc(F)ccc2F)CC1 -5.93%
Cc1ccc(NC(=O)c2sc3nc(-c4cccs4)ccc3c2N)cc1F 2.69%
CC(C)(C)NC(=O)C1CCN(c2nc3ccccc3nc2C(F)(F)F)CC1 -4.84%
COc1ccc(C(=O)NCCn2cc(SCc3c(F)cccc3Cl)c3ccccc32)cc1 -55%
Cc1ccc(-n2ncc3c(NC4CCCCCC4)ncnc32)cc1 -4.58%
O=c1[nH]c2cc(Br)ccc2n2cccc12 9.77%
O=C(O)c1ccccc1Nc1cc(Cl)ccc1C(=O)O -6.48% [at 25.1 µM, percent change from vehicle, -100% = no light]
O=C(c1cnc(N2CCOCC2)c2ccccc12)N1CCN(c2ccccc2)CC1 -25.9%
Cn1nnnc1SCCCNCc1ccccc1OCc1ccc(Cl)cc1 -21%
NS(=O)(=O)c1cc2c(cc1Cl)NC(CSCc1ccccc1)=NS2(=O)=O -9.9%
O=C(NCc1ccccc1Cl)c1ccc(CS(=O)(=O)c2ccc(Br)cc2)o1 -34.2%
CCN(CC)S(=O)(=O)c1ccc2c(c1)N(CC(=O)N1CCN(c3cccc(C)c3C)CC1)C(=O)CO2 -21.8%
Cc1cc(C)c(NC(=O)Cn2c(=O)n(CCC(=O)N3CCc4ccccc4C3)c(=O)c3ccccc32)c(C)c1 -17.3%
Clc1ccc(-n2ncc3c(NC4CCCC4)ncnc32)cc1 -40.3%
